Here are results for 14 molecules from publication PMC12136788.

The chains are these.
B1: chr9:113042727:113044268:-|CDS|ENSG00000136866|control|control|control (ssRNA)
RNA: GGGAGUUCUACAGUCCGACGAUCCAUCAGAGAGUUCAUACUGGAGAGAAACCGUAUGAGUGUAAUGAAUGUGGGAAAGCCUUUAGCCAAAAGUCUCACCUCAUUGUACAUCAGAGAACUCAUACUGGGGAGAAACCUUAUGAACAACAGAGGAUUGAGCAUCA
B2: chr3:196319341:196319897:-|three_prime_utr|ENSG00000145107|control|control|control (ssRNA)
RNA: GGGAGUUCUACAGUCCGACGAUCAUCACAGGUGCGAGUCACCGUGCCUGGCCAACUAAUGAAAAGUUUAAAGAAUUUAUAUCUAGUUUUGGAUGUUAGGCAUGCACACACAAGUGCAUGCACACUCAUACACAUCAUCUCCACCAACAGAGGAUUGAGCAUCA
B3: chr7:100033925:100034026:+|CDS|ENSG00000106261|msi1|FALSE|bound_elsewhere (ssRNA)
RNA: GGGAGUUCUACAGUCCGACGAUCCAGAGCUCGGACCUCACCAAGCAUCAGAGAAUUCACACGGGGGAGAAACCCUAUGAAUGUAGUGAAUGUGGAAAAGCUUUCAACCGAAACUCAUACCUGAUUUUGCAUCGGAGAAUUCACCAACAGAGGAUUGAGCAUCA
B4: chr14:23275577:23277187:-|CDS|ENSG00000290292|control|control|control (ssRNA)
RNA: GGGAGUUCUACAGUCCGACGAUCGCAGGUGCUGGAUUGGUUUGACUCUCGAUUACCUCAGCCAGCUGAGGUGGUAGUUUGUCUAGAUGAAGAAGAGGAAGAGGAGGAGGAAGAACUGCCAGAAGAUGAUGAGGAAGAGGAGGACAACAGAGGAUUGAGCAUCA
B5: chr14:102081487:102081564:-|3pUTR|ENSG00000080824|msi1_unk|total|mutant (ssRNA)
RNA: GGGAGUUCUACAGUCCGACGAUCGAAGAUAAGAUUUCUGUCUACUAAGUGAUGCUGUGAUACCUCCGGCACUAAAGCAGAGCCCGUAAUGCUUUUUGAGUUUCAUGUUGGUUUAUUUUCACAGAUUGGGGUAACGUGCACUGUCAACAGAGGAUUGAGCAUCA
B6: ENSG00000136935:stop:overlap|stop_codon|ENSG00000136935|stop_codon|NA|stop_codon (ssRNA)
RNA: GGGAGUUCUACAGUCCGACGAUCAACCAGCUCCCAAGGGCAGCAUCCGGCCGUCUAUCUCAAACCCUCGGAUACCAUGGUCCUAGAGGGGACUACCCAAGGAUGGAGCUCCGUGGGUUGACACUUUUUCUGUGAAAAGAACACCAACAGAGGAUUGAGCAUCA
B7: chr1:111147767:111147876:+|CDS|ENSG00000134255|unk|total|mutant (ssRNA)
RNA: GGGAGUUCUACAGUCCGACGAUCAUUAAAUAAAUUGUUUCAGUUACCAACACCACCAUUGUCAAGACACCAACUAAAGCGGCCCGAAGAACACAGAUAUCAAAGUGCUGGACGGUCCCUGCUUGAGCCCUUAAUGCAAGGGUACAACAGAGGAUUGAGCAUCA
B8: chr21:36896991:36897096:-|CDS|ENSG00000159267|unk|FALSE|bound_elsewhere (ssRNA)
RNA: GGGAGUUCUACAGUCCGACGAUCCAGUGGCUUGGGAAACAUGUGGACUCCGAGGGAGAAAUAAAAUCCGGCCAGCUCUCUCUUAGAUUUGUUUCAUCCUACGUGUCUGAAGUAGAAAUAACCCCAUCUUGUAUACCUGUGGUGCAACAGAGGAUUGAGCAUCA
B9: chr1:20742972:20743075:-|3pUTR|ENSG00000127483|unk|total|mutant (ssRNA)
RNA: GGGAGUUCUACAGUCCGACGAUCUAACCCUUUCUUAUUUGUAUUUGUUUCCGUAUUGUGAAGUUGUGUUAAACCGUACCCGCCCGAAAUACAAAUUUCUGGUUAUCAUUUCUCUUCCCUGUGGCACUUGACAUUUUAAUUGUCCAACAGAGGAUUGAGCAUCA
B10: chr1:213241217:213241334:+|CDS|ENSG00000136643|unk|FALSE|unique (ssRNA)
RNA: GGGAGUUCUACAGUCCGACGAUCAGUUCUCCAAGAACAUCAGAUUCCCUCAGUAGAUCAAAAAAUAGCCCCAUGGAAUUCUUUAGGAUAGACAGUAAGGAUAGCGCAAGUGAACUCCUGGGACUUGACUUUGGAGAAAAAUUGCAACAGAGGAUUGAGCAUCA
B11: ENSG00000155506:stop:overlap|stop_codon|ENSG00000155506|stop_codon|NA|stop_codon (ssRNA)
RNA: GGGAGUUCUACAGUCCGACGAUCAGAACGCAUUGCCGCCGGUCCUGACCACCGUGAACGGACAGUCCCCCCCAGAUACCCUUUAGGGCUGGUUUGCCUUAGUUGAGGAAGAAGACCCUCCUAGGGACUCUGUCUGCCAUCCACCAACAGAGGAUUGAGCAUCA
B12: chr11:10797513:10797714:-|3pUTR|ENSG00000110321|msi1_unk|total|mutant (ssRNA)
RNA: GGGAGUUCUACAGUCCGACGAUCUUCUGCAUAAGGUUUUUUUGCCGUGUAAUGUCUUAAUCACCGUCUACCAUCAAAUAUUUCCGGAGUAUCUUUAAUGUUCCGACCGUAUAUCCGCAGCAUGCAAUAAUUACAUCAUAAGUUCAACAGAGGAUUGAGCAUCA
B13: chr6:4954605:4954706:+|3pUTR|ENSG00000153046|msi1|total|mutant (ssRNA)
RNA: GGGAGUUCUACAGUCCGACGAUCGGAUAAAUACUUCUGAUGAAAAAUCCGCUGAGGAGCAUACCCCAAACCAGACAUAUGCUCCGGAUUCAUGCUGAGAUAUCAAUUGGUUUCCCCUUCUUUUUAAAAUACGUCCAGUUCUUACAACAGAGGAUUGAGCAUCA
B14: ENSG00000198589:be:win_7351|CDS|ENSG00000198589|bound_else_gene|NA|bound_elsewhere_windowed (ssRNA)
RNA: GGGAGUUCUACAGUCCGACGAUCGUGUUGAGAGAGGCUGUUGAAGCUCAAAUCCGAAGUUUUGGACAGACUCCUUCUCAACUACUCAUAGAGCCCCAUCCUCCCAGAGGUUCUGCCAUGCAAGUGAGUCCAUUGAUGUUCACACAACAGAGGAUUGAGCAUCA

This is one part of the list.

The assay has as its target MSI1 full-length (mouse, UniProt Q61474 1-362). Description: nsRBNS (natural sequence RNA bind-n-seq); RBNS binding buffer (assumed for nsRBNS): 25 mM Tris pH 7.5, 150 mM KCl, 3 mM MgCl2, 0.01% Triton X-100, 500 ug/ml BSA, 20 U/ml SUPERase-In, 4 C; UNK is unkempt and MSI1 is Musashi-1; names of the RNAs are library labels; protein concentration not given here; high values mean tight binding.
UniProt Q61474, sequence (Q61474 whole entry): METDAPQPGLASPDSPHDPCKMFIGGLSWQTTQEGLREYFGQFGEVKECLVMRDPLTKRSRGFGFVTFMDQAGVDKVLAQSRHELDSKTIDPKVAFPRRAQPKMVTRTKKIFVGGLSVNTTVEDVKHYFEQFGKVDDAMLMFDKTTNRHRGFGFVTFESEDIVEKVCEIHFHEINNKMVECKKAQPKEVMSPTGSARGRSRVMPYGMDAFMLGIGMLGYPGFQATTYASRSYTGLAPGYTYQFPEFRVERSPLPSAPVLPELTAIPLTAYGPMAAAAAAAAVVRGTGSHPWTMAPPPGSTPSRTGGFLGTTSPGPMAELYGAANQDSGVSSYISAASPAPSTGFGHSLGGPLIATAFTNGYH
In turn, B1 gave a binding signal of 0.321 enrichment R. Turning to B2, the binding signal was 1.15 enrichment R. Regarding B3, the binding signal came to 0.412 enrichment R. With B4, the binding signal was determined as 1.23 enrichment R. The value for B5 was 0.346 enrichment R. Molecule B6 had a binding signal of 0.414 enrichment R. Consider B7, for which the binding signal is 0.854 enrichment R. B8 gave a binding signal of 0.721 enrichment R. Molecule B9 returned a binding signal of 1.4 enrichment R.

With B10, the binding signal turned out to be 24.6 enrichment R. As to B11, the binding signal came out at 1.09 enrichment R. The molecule B12 returned a binding signal of 1.63 enrichment R.

Regarding B13, the binding signal was found to be 0.346 enrichment R. As to B14, the binding signal came out at 0.404 enrichment R.
